Over roughly 33,000 sequences, “E-score (-0.5 to 0.5)” has its median near -0.012; the highest 2% begin near 0.29. This is one part of the list.
What follows are sequences tested against T1, Ybr033w (UniProt P38073) (assay: PBM E-score (8-mer binding enrichment) (E-score (-0.5 to 0.5)); higher = stronger / more preferred TF binding; most listed sequences are background and not binding sites). Settings: protein concentration: 200 nM; construct: GST-full length.
T1 sequence: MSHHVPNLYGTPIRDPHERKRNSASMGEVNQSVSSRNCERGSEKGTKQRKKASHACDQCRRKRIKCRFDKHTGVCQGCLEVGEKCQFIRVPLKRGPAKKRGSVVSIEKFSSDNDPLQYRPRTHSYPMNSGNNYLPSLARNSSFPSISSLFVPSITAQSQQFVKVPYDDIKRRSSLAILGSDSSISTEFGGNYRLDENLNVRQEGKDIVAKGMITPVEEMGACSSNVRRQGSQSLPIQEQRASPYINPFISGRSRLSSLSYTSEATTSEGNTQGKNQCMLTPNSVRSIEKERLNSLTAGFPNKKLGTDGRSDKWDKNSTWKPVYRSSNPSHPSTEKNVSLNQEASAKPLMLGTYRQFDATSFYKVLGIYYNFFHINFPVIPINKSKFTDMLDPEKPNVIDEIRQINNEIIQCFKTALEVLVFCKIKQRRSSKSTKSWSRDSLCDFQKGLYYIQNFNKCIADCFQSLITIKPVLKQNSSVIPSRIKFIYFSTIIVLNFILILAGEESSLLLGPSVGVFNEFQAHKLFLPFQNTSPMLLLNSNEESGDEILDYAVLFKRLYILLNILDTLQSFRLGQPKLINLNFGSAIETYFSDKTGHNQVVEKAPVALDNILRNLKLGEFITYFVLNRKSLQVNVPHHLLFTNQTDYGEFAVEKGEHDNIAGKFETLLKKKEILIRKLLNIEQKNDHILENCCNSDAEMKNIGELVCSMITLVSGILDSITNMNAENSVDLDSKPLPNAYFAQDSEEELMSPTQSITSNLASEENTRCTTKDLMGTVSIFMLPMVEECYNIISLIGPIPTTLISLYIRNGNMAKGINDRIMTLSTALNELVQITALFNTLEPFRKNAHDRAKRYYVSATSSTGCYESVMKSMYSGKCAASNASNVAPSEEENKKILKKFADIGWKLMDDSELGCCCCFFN
Procedure: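 Universal 'all 10-mer' protein binding microarrays (Agilent AMADID 015681) probed with GST-tagged S. cerevisiae TFs (full-length or DBD) made by in vitro transcription/translation (PURExpress), about 100-200 nM. Bound TF was detected with fluorescent anti-GST. Each ungapped 8-mer (which stands for itself and its reverse complement) is scored by the PBM enrichment score (E-score), a modified Wilcoxon-Mann-Whitney statistic from -0.5 to +0.5, computed with the Universal PBM Analysis Suite. Scale: above 0.35 generally sequence-specific binding.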

Point of comparison: GCCCGTAC, “PBM E-score” value -0.288. Against it:
- GGATGAAA — higher, 0.147
- CTTCTAGC — higher, -0.255
- CATGGAAC — higher, -0.126
- CTCAAGAA — higher, 0.129
- CCACTGCC — higher, -0.0837
- AACACCAT — higher, 0.0922
- ACAAAAAT — higher, 0.308
- ATCTTAGC — higher, -0.102
- AGAAGTGA — higher, 0.0863
- CGGCGTAC — higher, -0.182
- GCATTAAA — higher, 0.147
- AACGCAAA — higher, 0.0338
- ATAACGCG — higher, 0.022
- CCGAAGGC — higher, -0.11
- ACTACTCG — higher, 0.154
- AGATGGCC — higher, -0.237
- GATAGCGC — higher, -0.0861
- CCGATGGC — higher, -0.16
- CACTATCC — higher, -0.0441
- AAAAAAGC — higher, 0.171
- GATCGGCA — higher, -0.136
- TGCTAAAA — higher, 0.0551
- CAATTCTG — higher, 0.00143
- CGCGACCC — higher, -0.139
- TCGACAGA — higher, -0.00682
- AATGGTCA — higher, 0.205
- GCTGAATA — higher, 0.182
- TCAGTTCA — higher, 0.0585
- ATTGTTTG — higher, 0.118
- ATGGGCAA — higher, 0.00404
- TGGGCACA — higher, -0.0838
- ACTTGCAA — higher, 0.148
- AAGGTAAC — higher, -0.0278
- AACCCTGT — higher, -0.0529
- GTGTGAAC — higher, 0.123
- GATTGCTA — higher, 0.0334
- AGCCCTTG — higher, -0.0775
- TAGATCGA — higher, 0.037
- GGGAGAAC — higher, -0.243
- ATTTAGGG — higher, -0.0312
- AGGATACT — higher, -0.0125
- ACGCATTA — higher, 0.0633
- ACCAGCAT — higher, 0.0255
- AGAATAGA — higher, 0.184
- ACGGAAGT — higher, 0.0483
- CGGATGTC — higher, -0.0666
- ACATCAGG — higher, 0.038
- CCGTCACC — higher, -0.287
- ATGCCATA — higher, -0.00061
- AACGTTCT — higher, 0.124
- AGAGGGCT — higher, -0.064
- CCTAGAGA — higher, 0.0287
- CCTACGAG — higher, -0.105
- CTAGTGTA — higher, 0.222
- AAAAACCC — higher, 0.164
- TCGGCGCA — higher, -0.0741
- GCAGCTGC — higher, -0.00486
- GATGCTCC — higher, -0.0931
- CTATCAAA — higher, 0.023
- TCAAGCCA — higher, -0.167
- CCCCGAGC — higher, -0.238
- CTCCGGGC — higher, -0.258
- AGATGCTG — higher, -0.139
- GAAAGGTA — higher, 0.131
- GCGTGCCC — higher, -0.253
- AACATAAC — higher, 0.281
- CCGATTAG — higher, -0.131
- CCATTTAG — higher, -0.056
- ATCCTGGG — higher, -0.084
- TCTTGTAA — higher, 0.14
- CACCTGGA — higher, -0.0177
- CTCGGTTA — higher, -0.088
- ACGGAAGG — higher, -0.126
- CGAAAGTA — higher, -0.0412
- CTTACTTC — higher, 0.133
- CTGTCCAA — higher, -0.0179
- GGTCTGAC — higher, -0.179
- CCACCCTA — higher, 0.0231
- GGGCGCCA — higher, -0.146
- GACTCGGA — higher, -0.0488
- CCATTTCG — higher, -0.112
- ACTGGTAT — higher, -0.0881
- ACTCGACA — higher, 0.0137
- CTTTATAA — higher, 0.0351
- ACAATTGC — higher, 0.0115
- CGGCGTAG — higher, -0.155
- ACATTTAC — higher, 0.117
- CTACGATC — higher, -0.0637
- ACCGGGTC — higher, -0.0994
- GGGCATAC — higher, -0.1
- CGTTTTTA — higher, 0.186
- CTAAAGGC — higher, -0.0862
- ATTCAGAC — higher, 0.0909
- CCTAGTGA — higher, -0.156
- CTCTGTCA — higher, -0.0348
- GGTCTGCA — higher, -0.263
- CGCTACGC — higher, -0.234
- ACGCTCAT — higher, -0.0548
- ATTTCGGG — higher, 0.00241
- AAAGGGAC — higher, -0.0798
- AAACTAGG — higher, 0.0193
- CTCAAAAA — higher, 0.0775
- GGTCCCCA — higher, -0.231
- GTTGAACA — higher, -0.082
- TAAGAAAA — higher, 0.224
- CGTTCCAA — higher, 0.028
- CCACAAAC — higher, 0.077
- AGCCCTCA — higher, -0.181
- GTTTCATA — higher, 0.154
- AACTTCGG — higher, 0.0908
- CGCAACGA — higher, -0.016
- ATTTCAGA — higher, -0.0877
- TTCGGCAA — higher, 0.167
- CAGATGCG — higher, -0.221
- ACCCGCCA — higher, -0.151
- AGACCCAG — higher, -0.187
- GTCTACAA — higher, 0.0179
- AGCTGCCG — higher, -0.115
- ACCCCAGA — higher, -0.119
- GAATAATC — higher, 0.379
- CTCGGACC — higher, -0.126
- CAGATTAA — higher, 0.291
- AACCGTAA — higher, -0.0251
- GTCTGAAA — higher, -0.0395
- CTAAGCGC — higher, -0.013
- CAGCCTGC — higher, -0.256
- AAGGACGG — higher, -0.244
- ACAAGCAA — higher, 0.108
- CGATGTAC — higher, -0.00411
- CCGTTCCG — higher, 0.034
- ATGCACAC — higher, 0.0304
- AATTCGTG — higher, 0.0162
- CCTTGCTC — higher, -0.0493
- CAAAGCGA — higher, 0.0356
- CATGATAG — higher, 0.156
- CGAACTTC — higher, 0.0459
- CTTTGTTC — higher, 0.111
- AATACGGA — higher, 0.14
- GGCGCCTA — higher, -0.126
- TAGAGCTA — higher, -0.115
- AACGAGAG — higher, 0.102
- ATGGTACG — higher, 0.175
- GGTCTCAC — higher, -0.00348
- AAGGGTGT — higher, 0.0499
- AGATTAAT — higher, 0.284
- CCCACGGA — higher, -0.0113
- CGCCCTAA — higher, -0.194
- ATAATCTA — higher, 0.294
- GGCGTCCC — higher, -0.247
- ATAAGACC — higher, 0.0649
- CAGCCAGC — higher, -0.233
- ACCGGCCT — higher, -0.114
- AACCTTGA — higher, 0.149
- CGCCGGAA — higher, 0.153
- GACACCAA — higher, 0.0677
- CTGTCCCC — lower, -0.319
- CTTTAATC — higher, 0.145
- CAAGGGAA — higher, 0.0793
- GACTGTCA — higher, -0.114
- TATAGCAA — higher, 0.158
- CAGAAGTC — higher, -0.272
- GTCTTAAA — higher, -0.134
- CACGAAAG — higher, 0.0311
- AGTGAACC — higher, 0.0481
- ACCGCGCC — higher, -0.181
- CATACGTC — higher, 0.0128
- TGGCGGAA — higher, 0.032
- TCCCCCAA — higher, -0.271
- CTGTGATC — higher, -0.00745
- GGATTTAA — higher, 0.0433
- ACCGGAAA — higher, 0.151

Source: the supplement of paper PMC3334620
